The results in this text go back to paper PMC11676169.

The chains behind the UniProt entries cited, without tags or fusion partners. Where a name states a change or a piece, a line headed by the entry shows the natural chain unless it says otherwise.
UniProt P12956: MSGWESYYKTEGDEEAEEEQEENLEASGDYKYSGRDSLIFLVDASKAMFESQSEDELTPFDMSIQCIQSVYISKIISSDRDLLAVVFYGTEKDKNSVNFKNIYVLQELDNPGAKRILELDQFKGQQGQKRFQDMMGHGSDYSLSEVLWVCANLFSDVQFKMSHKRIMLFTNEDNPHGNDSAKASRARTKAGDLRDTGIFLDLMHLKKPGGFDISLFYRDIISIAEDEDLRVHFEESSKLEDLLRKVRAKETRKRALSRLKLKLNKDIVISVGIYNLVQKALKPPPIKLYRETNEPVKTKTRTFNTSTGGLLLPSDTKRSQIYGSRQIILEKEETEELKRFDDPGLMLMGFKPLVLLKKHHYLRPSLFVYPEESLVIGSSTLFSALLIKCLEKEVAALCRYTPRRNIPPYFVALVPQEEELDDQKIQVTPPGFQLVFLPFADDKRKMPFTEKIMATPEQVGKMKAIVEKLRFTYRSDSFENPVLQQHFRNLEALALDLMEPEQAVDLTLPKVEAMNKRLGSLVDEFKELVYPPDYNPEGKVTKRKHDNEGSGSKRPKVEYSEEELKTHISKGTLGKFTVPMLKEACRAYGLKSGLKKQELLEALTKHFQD
UniProt P13010: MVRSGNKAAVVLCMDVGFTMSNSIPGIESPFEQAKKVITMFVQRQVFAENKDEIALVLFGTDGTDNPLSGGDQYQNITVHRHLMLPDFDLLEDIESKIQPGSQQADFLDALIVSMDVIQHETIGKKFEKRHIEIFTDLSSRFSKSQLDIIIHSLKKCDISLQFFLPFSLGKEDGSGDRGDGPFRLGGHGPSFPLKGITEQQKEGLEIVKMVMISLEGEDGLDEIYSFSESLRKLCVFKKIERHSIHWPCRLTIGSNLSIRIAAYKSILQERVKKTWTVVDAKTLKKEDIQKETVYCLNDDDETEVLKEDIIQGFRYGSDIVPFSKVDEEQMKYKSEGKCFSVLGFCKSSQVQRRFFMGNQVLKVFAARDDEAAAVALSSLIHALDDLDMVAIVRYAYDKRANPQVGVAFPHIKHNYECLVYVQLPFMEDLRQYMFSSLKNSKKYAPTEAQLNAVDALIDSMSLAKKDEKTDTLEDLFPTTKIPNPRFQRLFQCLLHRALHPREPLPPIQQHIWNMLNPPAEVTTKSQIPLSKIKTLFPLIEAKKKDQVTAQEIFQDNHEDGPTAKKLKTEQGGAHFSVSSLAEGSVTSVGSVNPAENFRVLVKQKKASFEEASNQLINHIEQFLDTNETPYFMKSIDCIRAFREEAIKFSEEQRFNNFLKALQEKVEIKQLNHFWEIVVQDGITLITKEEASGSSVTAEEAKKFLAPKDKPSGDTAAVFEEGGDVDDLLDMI
UniProt P78527: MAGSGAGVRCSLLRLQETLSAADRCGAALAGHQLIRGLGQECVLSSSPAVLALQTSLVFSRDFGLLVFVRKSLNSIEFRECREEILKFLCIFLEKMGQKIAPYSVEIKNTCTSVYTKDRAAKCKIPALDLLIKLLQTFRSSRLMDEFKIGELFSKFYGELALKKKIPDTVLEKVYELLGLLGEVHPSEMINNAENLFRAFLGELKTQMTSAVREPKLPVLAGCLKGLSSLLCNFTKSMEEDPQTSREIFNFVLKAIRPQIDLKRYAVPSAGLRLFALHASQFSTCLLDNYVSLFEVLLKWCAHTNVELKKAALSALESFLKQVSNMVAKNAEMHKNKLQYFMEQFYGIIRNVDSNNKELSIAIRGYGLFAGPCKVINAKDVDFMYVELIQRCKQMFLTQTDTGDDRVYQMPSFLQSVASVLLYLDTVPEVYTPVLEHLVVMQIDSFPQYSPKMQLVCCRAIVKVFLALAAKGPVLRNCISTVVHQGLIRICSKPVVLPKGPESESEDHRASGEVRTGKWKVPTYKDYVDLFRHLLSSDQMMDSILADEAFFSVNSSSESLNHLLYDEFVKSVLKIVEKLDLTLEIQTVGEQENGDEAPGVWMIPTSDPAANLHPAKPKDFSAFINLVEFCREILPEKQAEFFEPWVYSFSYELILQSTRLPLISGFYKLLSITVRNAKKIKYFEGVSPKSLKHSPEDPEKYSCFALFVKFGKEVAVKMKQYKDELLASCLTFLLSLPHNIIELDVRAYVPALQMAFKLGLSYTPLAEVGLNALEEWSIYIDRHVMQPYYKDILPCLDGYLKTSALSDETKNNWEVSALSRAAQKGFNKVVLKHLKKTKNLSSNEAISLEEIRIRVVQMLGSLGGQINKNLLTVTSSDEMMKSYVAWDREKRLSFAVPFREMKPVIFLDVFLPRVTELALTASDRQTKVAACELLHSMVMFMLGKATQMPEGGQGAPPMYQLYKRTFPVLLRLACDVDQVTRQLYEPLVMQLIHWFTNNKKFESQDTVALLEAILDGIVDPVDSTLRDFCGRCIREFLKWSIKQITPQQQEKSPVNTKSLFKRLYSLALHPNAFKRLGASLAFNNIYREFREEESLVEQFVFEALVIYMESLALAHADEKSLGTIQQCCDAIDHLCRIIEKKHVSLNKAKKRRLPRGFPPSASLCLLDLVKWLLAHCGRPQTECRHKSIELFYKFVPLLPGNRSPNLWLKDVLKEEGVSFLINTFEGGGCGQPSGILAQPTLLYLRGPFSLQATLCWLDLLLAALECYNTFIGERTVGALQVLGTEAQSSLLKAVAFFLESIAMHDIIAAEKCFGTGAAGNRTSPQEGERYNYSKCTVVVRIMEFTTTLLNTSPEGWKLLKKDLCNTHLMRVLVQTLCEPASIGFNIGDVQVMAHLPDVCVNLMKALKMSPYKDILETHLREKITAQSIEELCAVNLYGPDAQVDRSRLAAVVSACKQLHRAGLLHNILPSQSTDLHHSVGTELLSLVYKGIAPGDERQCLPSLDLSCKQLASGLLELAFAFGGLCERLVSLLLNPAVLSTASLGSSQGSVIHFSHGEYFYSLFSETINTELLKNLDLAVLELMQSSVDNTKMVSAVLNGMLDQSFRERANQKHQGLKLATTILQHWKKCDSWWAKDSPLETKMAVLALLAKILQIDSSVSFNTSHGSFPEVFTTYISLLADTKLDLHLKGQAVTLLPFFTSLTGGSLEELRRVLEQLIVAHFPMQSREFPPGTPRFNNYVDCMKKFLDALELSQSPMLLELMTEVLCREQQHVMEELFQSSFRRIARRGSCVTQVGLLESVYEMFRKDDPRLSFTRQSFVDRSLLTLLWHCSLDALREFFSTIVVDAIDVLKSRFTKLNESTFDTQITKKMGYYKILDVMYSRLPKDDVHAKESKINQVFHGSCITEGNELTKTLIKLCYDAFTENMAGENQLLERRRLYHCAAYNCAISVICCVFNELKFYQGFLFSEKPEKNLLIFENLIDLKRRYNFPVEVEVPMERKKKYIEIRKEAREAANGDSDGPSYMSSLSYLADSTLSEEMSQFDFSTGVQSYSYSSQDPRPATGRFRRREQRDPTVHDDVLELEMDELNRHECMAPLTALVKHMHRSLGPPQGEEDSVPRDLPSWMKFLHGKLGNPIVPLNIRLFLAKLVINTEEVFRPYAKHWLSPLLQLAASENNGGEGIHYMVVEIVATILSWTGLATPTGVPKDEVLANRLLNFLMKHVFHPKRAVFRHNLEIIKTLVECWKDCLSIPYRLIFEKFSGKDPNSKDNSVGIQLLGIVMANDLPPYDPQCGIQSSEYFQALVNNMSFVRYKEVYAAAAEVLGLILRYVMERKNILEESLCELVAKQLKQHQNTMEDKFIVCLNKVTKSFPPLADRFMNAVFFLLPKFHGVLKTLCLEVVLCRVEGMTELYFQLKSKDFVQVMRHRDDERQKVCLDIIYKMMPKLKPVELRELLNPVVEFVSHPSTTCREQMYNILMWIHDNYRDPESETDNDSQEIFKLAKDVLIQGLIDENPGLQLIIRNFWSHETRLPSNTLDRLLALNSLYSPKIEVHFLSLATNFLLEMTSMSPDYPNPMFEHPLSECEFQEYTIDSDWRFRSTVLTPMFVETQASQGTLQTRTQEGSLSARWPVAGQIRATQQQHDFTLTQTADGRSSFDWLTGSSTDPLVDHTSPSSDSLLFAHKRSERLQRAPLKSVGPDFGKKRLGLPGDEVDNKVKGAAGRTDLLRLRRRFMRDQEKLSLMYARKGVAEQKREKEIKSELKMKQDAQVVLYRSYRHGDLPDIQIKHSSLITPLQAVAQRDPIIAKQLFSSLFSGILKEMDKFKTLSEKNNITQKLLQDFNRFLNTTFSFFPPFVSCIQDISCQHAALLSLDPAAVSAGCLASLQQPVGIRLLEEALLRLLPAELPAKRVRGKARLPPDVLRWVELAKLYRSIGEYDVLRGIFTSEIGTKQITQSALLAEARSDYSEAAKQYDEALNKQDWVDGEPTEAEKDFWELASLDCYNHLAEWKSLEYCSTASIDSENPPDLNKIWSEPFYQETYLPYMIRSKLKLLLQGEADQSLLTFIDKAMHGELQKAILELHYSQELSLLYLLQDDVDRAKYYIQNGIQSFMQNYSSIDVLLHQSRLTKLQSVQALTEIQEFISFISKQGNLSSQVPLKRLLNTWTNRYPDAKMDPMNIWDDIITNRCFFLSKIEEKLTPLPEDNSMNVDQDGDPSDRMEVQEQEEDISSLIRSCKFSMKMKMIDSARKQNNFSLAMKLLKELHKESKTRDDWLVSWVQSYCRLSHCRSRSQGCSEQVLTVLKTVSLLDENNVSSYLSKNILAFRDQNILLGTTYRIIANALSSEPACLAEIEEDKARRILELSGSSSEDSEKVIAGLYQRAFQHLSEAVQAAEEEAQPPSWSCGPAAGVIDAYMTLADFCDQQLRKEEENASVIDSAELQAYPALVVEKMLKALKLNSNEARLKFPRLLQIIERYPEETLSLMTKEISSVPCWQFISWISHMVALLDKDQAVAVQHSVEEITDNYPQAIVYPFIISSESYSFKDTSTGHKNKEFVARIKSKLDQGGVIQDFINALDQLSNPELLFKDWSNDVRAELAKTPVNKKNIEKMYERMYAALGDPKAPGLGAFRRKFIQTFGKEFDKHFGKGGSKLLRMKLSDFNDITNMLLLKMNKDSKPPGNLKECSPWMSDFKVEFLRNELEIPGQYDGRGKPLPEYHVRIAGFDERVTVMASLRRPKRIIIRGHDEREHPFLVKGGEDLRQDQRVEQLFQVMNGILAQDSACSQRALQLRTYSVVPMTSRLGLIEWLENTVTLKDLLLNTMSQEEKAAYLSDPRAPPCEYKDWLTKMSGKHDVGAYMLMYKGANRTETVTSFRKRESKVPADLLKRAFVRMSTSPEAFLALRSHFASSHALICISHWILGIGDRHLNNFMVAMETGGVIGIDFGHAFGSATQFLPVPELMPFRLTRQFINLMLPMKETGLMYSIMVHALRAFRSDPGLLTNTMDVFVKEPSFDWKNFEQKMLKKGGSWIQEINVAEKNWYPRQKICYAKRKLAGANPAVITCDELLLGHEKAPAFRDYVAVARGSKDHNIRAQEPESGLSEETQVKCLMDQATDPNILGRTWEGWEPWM

Assay [1] has as its target T1, endogenously expressed BCAT1 in CCRF-CEM T-ALL cells (human (endogenous in CCRF-CEM)) (UniProt P54687).
T1 sequence: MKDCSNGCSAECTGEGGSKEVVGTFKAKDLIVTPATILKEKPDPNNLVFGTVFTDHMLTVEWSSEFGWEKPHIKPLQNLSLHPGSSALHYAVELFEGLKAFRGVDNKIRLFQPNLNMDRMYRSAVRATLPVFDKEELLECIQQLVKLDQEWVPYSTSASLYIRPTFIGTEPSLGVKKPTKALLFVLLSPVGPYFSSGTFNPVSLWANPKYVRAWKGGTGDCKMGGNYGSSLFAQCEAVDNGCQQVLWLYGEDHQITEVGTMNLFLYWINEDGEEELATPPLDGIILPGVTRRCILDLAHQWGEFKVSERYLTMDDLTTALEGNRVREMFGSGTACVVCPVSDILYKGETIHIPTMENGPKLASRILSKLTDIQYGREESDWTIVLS
In words: co-IP; endogenous proteins, CCRF-CEM cells lysed in NETN buffer; IP with mouse anti-BCAT1 antibody or irrelevant mouse Ig, TrueBlot anti-mouse Ig beads; immunoblot. Background: In western blotting, separated proteins are transferred to a membrane and probed.

Assay [2] deals with T2, epitope-tagged BCAT1 (BCAT1 myc/DDK), expressed in HEK 293T cells (UniProt P54687).
T2 sequence: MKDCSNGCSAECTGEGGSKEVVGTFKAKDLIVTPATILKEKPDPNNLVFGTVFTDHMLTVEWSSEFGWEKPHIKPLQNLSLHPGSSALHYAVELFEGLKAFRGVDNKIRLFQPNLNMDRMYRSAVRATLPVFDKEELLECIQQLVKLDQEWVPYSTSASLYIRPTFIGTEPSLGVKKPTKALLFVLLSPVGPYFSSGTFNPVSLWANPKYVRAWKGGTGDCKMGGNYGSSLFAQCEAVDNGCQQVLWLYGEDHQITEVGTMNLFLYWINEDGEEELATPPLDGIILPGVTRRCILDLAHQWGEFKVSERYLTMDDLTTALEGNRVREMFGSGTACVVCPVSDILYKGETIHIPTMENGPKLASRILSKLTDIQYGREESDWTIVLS
Description: co-IP; HEK 293T stably expressing BCAT1 myc/DDK, transfected with GFP-KU70 or GFP-KU80; NETN lysis buffer (150 mM NaCl, 0.5% NP-40); anti-c-Myc beads overnight at 4 °C; immunoblot anti-BCAT1 and anti-GFP.

In assay [3] the target is T2, epitope-tagged BCAT1 (BCAT1 myc/DDK), expressed in HEK 293T cells. Description: co-IP; HEK 293T stably expressing BCAT1 myc/DDK, transfected with HA-tagged XRCC6 or XRCC5 full length or truncation mutants; modified NETN lysis buffer (150 mM NaCl, 1% Triton-X); anti-FLAG beads overnight at 4 °C; immunoblot anti-HA.
Assay [4] has as its target T3, double-tagged BCAT1 (BCAT1 myc-DDK), stably expressed in CUTLL1 T-ALL cells (UniProt P54687).
T3 sequence: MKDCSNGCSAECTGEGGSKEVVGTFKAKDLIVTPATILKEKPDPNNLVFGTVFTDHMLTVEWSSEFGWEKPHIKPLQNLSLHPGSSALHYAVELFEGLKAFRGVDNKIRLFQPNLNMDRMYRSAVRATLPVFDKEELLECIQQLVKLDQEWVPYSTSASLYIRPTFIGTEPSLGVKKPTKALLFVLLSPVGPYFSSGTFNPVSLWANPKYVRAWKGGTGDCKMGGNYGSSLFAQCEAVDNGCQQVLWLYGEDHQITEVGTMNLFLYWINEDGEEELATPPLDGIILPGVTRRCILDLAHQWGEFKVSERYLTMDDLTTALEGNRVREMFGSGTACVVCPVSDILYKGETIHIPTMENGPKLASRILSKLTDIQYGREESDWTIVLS
In words: co-IP; CUTLL1 cells expressing BCAT1 myc/DDK; anti-FLAG M2 beads overnight, washes in modified NETN buffer, elution with FLAG peptide; immunoblot for BCAT1, KU70 and KU80.

Assay [5] deals with T1, endogenously expressed BCAT1 in CCRF-CEM T-ALL cells (human (endogenous in CCRF-CEM)). Description: proximity ligation; fixed and permeabilised T-ALL cells, untreated or treated with etoposide (1 µM) for 24 h; rabbit anti-KU70 and mouse anti-BCAT1 primary antibodies, Duolink.
Assay [6] addresses HA-tagged KU70 full length (pcDNA-HAXRCC6, 1-609) (UniProt P12956). Description: co-IP; HEK 293T co-transfected with full-length HA-XRCC6 or HA-XRCC5 and myc-DDK-tagged BCAT1 deletion mutants; modified NETN lysis buffer; anti-HA beads overnight at 4 °C; immunoblot.
Assay [7] deals with HA-tagged KU80 full-length protein (pLenti-HAXRCC5, 1-732) (UniProt P13010). The assay is described as above.
The target of assay [8] is GFP/FLAG-KU70 (pEGFP-C1-FLAG-Ku70) (UniProt P12956). In words: co-IP; HEK 293T stably expressing BCAT1 myc/DDK, transfected with GFP-KU70 or GFP-KU80; NETN lysis buffer (150 mM NaCl, 0.5% NP-40); GFP-Trap agarose overnight at 4 °C; immunoblot anti-BCAT1, anti-Flag and anti-GFP.
Assay [9] addresses GFP/FLAG-KU80 (pEGFP-C1-FLAG-Ku80) (UniProt P13010). The description is as above.

Results are given in words; binding and its absence hold for the method and conditions named. Binding seen in cells or lysates may run through a third protein. Some binding calls cover weakened binding; strength is not graded here. For some of these results: Tags and fused reporters may be left off the sequences shown.

“DNA-PKcs, endogenous in CCRF-CEM T-ALL cells (from UniProt P78527 1-4128)”: the binding result in [1] is on record as “binds”.

For the molecule “GFP/FLAG-KU70 (pEGFP-C1-FLAG-Ku70) (from UniProt P12956 1-609)”, the binding entry in [2] is reported as “binds”.

As to “GFP/FLAG-KU80 (pEGFP-C1-FLAG-Ku80) (from UniProt P13010 1-732)”, the binding entry in assay [2] is “binds”.

Take “HA-tagged KU70 C-terminal (aa 501-609) (from UniProt P12956 501-609) (domain or fragment)”: the binding result in [3] is “binds”.

With “HA-tagged KU70 Ku domain (aa 351-500) (from UniProt P12956 351-500) (domain or fragment)”, in assay [3], the binding result is given as “binds”.

Take “HA-tagged KU80 N-terminal domain (aa 1-240) (from UniProt P13010 1-240) (domain or fragment)”: the binding result in assay [3] is recorded as “binds”.

Regarding “KU70 (XRCC6), endogenous in CUTLL1 cells (from UniProt P12956 1-609)”, the binding entry in assay [4] is “binds”.

On to “KU70, endogenously expressed in CCRF-CEM T-ALL cells (from UniProt P12956 1-609)”, for which the results for the binding result in [1] and in [5] were “binds” and “binds weakly”, respectively.

In the case of “KU80 (XRCC5), endogenous in CUTLL1 cells (from UniProt P13010 1-732)”, the binding result in assay [4] is “binds”.

Turning to “KU80, endogenously expressed in CCRF-CEM T-ALL cells (from UniProt P13010 1-732)”, the binding entry in assay [1] is “binds”.

B1: myc-DDK-tagged C-terminal BCAT1 (aa 198-373) (domain or fragment, UniProt P54687 198-373)
chain: TFNPVSLWANPKYVRAWKGGTGDCKMGGNYGSSLFAQCEAVDNGCQQVLWLYGEDHQITEVGTMNLFLYWINEDGEEELATPPLDGIILPGVTRRCILDLAHQWGEFKVSERYLTMDDLTTALEGNRVREMFGSGTACVVCPVSDILYKGETIHIPTMENGPKLASRILSKLTDIQ
Regarding B1, the binding result in assay [6] and in assay [7] was “no binding” each time.

B2: epitope-tagged BCAT1 (BCAT1 myc/DDK), expressed in HEK 293T cells (enzyme, UniProt P54687 1-386)
chain: MKDCSNGCSAECTGEGGSKEVVGTFKAKDLIVTPATILKEKPDPNNLVFGTVFTDHMLTVEWSSEFGWEKPHIKPLQNLSLHPGSSALHYAVELFEGLKAFRGVDNKIRLFQPNLNMDRMYRSAVRATLPVFDKEELLECIQQLVKLDQEWVPYSTSASLYIRPTFIGTEPSLGVKKPTKALLFVLLSPVGPYFSSGTFNPVSLWANPKYVRAWKGGTGDCKMGGNYGSSLFAQCEAVDNGCQQVLWLYGEDHQITEVGTMNLFLYWINEDGEEELATPPLDGIILPGVTRRCILDLAHQWGEFKVSERYLTMDDLTTALEGNRVREMFGSGTACVVCPVSDILYKGETIHIPTMENGPKLASRILSKLTDIQYGREESDWTIVLS
Turning to B2, the binding entry in assay [8] and in assay [9] was “binds” throughout.

B3: myc-DDK-tagged BCAT1 aminotransferase IV (AT IV) domain (aa 94-343) (domain or fragment, UniProt P54687 94-343)
chain: LFEGLKAFRGVDNKIRLFQPNLNMDRMYRSAVRATLPVFDKEELLECIQQLVKLDQEWVPYSTSASLYIRPTFIGTEPSLGVKKPTKALLFVLLSPVGPYFSSGTFNPVSLWANPKYVRAWKGGTGDCKMGGNYGSSLFAQCEAVDNGCQQVLWLYGEDHQITEVGTMNLFLYWINEDGEEELATPPLDGIILPGVTRRCILDLAHQWGEFKVSERYLTMDDLTTALEGNRVREMFGSGTACVVCPVSDI
Regarding B3, the binding result in assay [6] and in assay [7] was “binds” throughout.

B4: myc-DDK-tagged N-terminal BCAT1 (aa 1-197) (domain or fragment, UniProt P54687 1-197)
chain: MKDCSNGCSAECTGEGGSKEVVGTFKAKDLIVTPATILKEKPDPNNLVFGTVFTDHMLTVEWSSEFGWEKPHIKPLQNLSLHPGSSALHYAVELFEGLKAFRGVDNKIRLFQPNLNMDRMYRSAVRATLPVFDKEELLECIQQLVKLDQEWVPYSTSASLYIRPTFIGTEPSLGVKKPTKALLFVLLSPVGPYFSSG
In the case of B4, the binding entry in [6] and in assay [7] was “no binding” in each case.
